Measurements from PubChem BioAssay AID504832 (National Center for Advancing Translational Sciences (NCATS), 2011).
The whole screen tested about 310,000 compounds, of which about 18,000 (5.8%) were called active. This list was built around the results that the source calls inconclusive (neither active nor inactive); the mix of calls is not that of the screen. Calls come from the whole dose curve; as a rule, active = well fitted inhibition curve with a large enough effect; inconclusive = small, poorly fitted or top-dose-only effect, or another doubt; inactive = no such curve, though single readings can be large or run the other way. No potency is given beside an inconclusive call; the fits are too rough.

Assay: Primary qHTS for delayed death inhibitors of the malarial parasite plastid, 48 hour incubation
Conditions: P. falciparum luciferase growth in erythrocytes; series mostly up to 28.7 µM; activity change, negative = inhibition: at the top concentration
Summary of the method: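 Cell-based growth assay: transgenic P. falciparum expressing firefly luciferase, cultured in red cells within RPMI 1640 containing 0.5% w/v Albumax, 24 mM bicarbonate and gentamycin. A drop in luciferase activity indicates inhibition.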
% is set by controls: 0 for no effect and ±100 for the full control effect; potency is the fitted concentration of half-maximal effect; tags give direction and shape of the fitted curve.

Row | Compound | Potency | activity change, negative = inhibition
1 | Cc1c(C(=O)N2CCCC2)oc2c1-c1nn(CC(=O)NCCCOC(C)C)cc1CC2 | inconclusive [inhibitor, partial curve] | –
2 | Cn1c(O)c(/C=C2\C=Nc3ccccc32)sc1=Nc1ccc(C(=O)O)cc1 | – | inactive: 4.74%
3 | COc1cc(OC)c2ccc(=O)oc2c1C(CCN1CCN(c2ccccc2)CC1)c1ccc(N(C)C)cc1 (stereo unspecified) | active: 11.7 µM | –
4 | Cc1ccccc1CN1C(=O)/C(=C\c2ccc(C(=O)NCCN3CCOCC3)cc2)Sc2ccccc21 | inconclusive [inhibitor, single point] | –
5 | O=c1c2c([nH]c3ccccc13)CCCCCC2 | inconclusive [inhibitor, full curve] | –
6 | Cc1cccn2c(CNCCc3ccco3)c(C(=O)N3CCOCC3)nc12 | inconclusive [inhibitor, single point] | –
7 | CN1CCc2nc(SCc3ccc(C(C)(C)C)cc3)c(C#N)cc2C1 | inconclusive [inhibitor, single point] | –
8 | COc1ccc(-c2nc(C3CCCCC3)c3cc(OC)ccc3n2)cc1 | – | inactive: 35.7%
9 | COc1cccc(CNC(=O)[C@H](CC(C)C)NC(=O)N2CCn3c2nc2ccccc23)c1 | inconclusive [inhibitor, single point] | –
10 | C#CCOCCOCCOCCNc1nc(N2CCN(C(=O)CCCCCCCCCCNC(=O)[C@H]([C@@H](C)CC)n3cc(CCCCN=C(N)N)nn3)CC2)nc(N2CCN(C(=O)CCCCCCCCCCNC(=O)[C@H]([C@@H](C)CC)n3cc(CCCCN=C(N)N)nn3)CC2)n1 | active: 3.7 µM | –
11 | CC(=O)N1CCN(c2nc(CC(C)C)c3c(c2C#N)CCC3)CC1 | inconclusive [inhibitor, full curve, poor fit] | –
12 | O=C(C1=C[C@@H]2[C@H]3C(=O)N(c4ccccc4Cl)C(=O)[C@H]3[C@@H](C(=O)c3ccc(Cl)cc3)N2C=C1)c1ccccc1 | inconclusive [inhibitor, single point] | –
13 | COc1cc(CCC(=O)N2CCN(c3ncccn3)CC2)cc(OC)c1OC | – | inactive: -5.87%
14 | Cc1ccc(N(CC(=O)NCCc2ccccc2)C(=O)c2csnn2)cc1 | inconclusive [inhibitor, single point] | –
15 | Cc1ccc(S(=O)(=O)NCCCNS(=O)(=O)c2ccc(C)cc2)cc1 | inconclusive [inhibitor, single point] | –
16 | CCN(CC)c1ccc(N=Cc2ccccc2[N+](=O)[O-])cc1 | active: 2.33 µM | –
17 | COCc1nc2ccccc2n1Cc1c(F)cccc1Cl | inconclusive [inhibitor, single point] | –
18 | COc1cc(/C=C/C(=O)O)ccc1OS(=O)(=O)c1c(C)c(C)cc(C)c1C | active: 10.4 µM | –
19 | O=C(CSC1=Nc2ccccc2C2=NC(CC(=O)NCc3ccco3)C(=O)N12)NCC1CCCO1 (stereo unspecified) | inconclusive [inhibitor, partial curve] | –
20 | Cc1nn(C)c2ncc(C(N)=O)c(Oc3ccc(Cl)cc3)c12 | – | inactive: 34.4%
21 | CCOc1ccc(C(=O)NC(=S)Nc2cc(C)ccn2)cc1[N+](=O)[O-] | – | inactive: -11.9%
22 | CN1CCOc2cc(S(=O)(=O)Nc3ccc(F)cc3)ccc21 | – | inactive: 43.5%

Row | Compound | Potency | activity change, negative = inhibition
23 | Cc1oc(-c2cccc(Cl)c2)nc1CN1CCC(C(=O)NCC2CCCO2)CC1 (stereo unspecified) | inconclusive [inhibitor, partial curve, poor fit] | –
24 | COc1cc2c(cc1OC)C1(CCCC1)C(N)=C2C#N | inconclusive [inhibitor, single point] | –
25 | Cc1ccc(C(=O)C(NC(=O)c2ccco2)Nc2sc3c(c2C(N)=O)CCCC3)cc1 (stereo unspecified) | inconclusive [inhibitor, single point] | –
26 | N#Cc1c2n(c3c(N)ncnc13)CCCCC2 | – | inactive: 3.38%
27 | CCOC(=O)C1=C(COC(=O)/C=C/c2ccc(OCC)c(OC)c2)NC(=O)NC1C (stereo unspecified) | inconclusive [inhibitor, single point] | –
28 | Cc1cccc(NC2=C(NCCO)C(=O)c3ccccc3C2=O)c1 | active: 4.65 µM | –
29 | Cc1cccc(NC(=O)CN2C(=O)S/C(=C\c3ccc(O)c([N+](=O)[O-])c3)C2=O)c1 | inconclusive [inhibitor, partial curve, poor fit] | –
30 | CCCCN(C(=O)c1ccccc1OCc1ccc(F)cc1)c1c(N)n(CCC)c(=O)[nH]c1=O | inconclusive [inhibitor, partial curve] | –
31 | CCOc1ccc(N(CC(=O)N2CCCCCC2)S(=O)(=O)c2ccc(C)cc2)cc1 | inconclusive [inhibitor, partial curve] | –
32 | COc1ccc(C(=O)N/C(=C\c2ccccc2)C(=O)Nc2ccc(C(=O)NCC(=O)O)cc2)cc1 | inconclusive [inhibitor, single point] | –
33 | Cc1ccc(-c2ccc(C(=O)NCc3ccccc3)o2)c2ccccc12 | inconclusive [inhibitor, partial curve, poor fit] | –
34 | O=C(Nc1csnn1)c1csnn1 | inconclusive [inhibitor, full curve, poor fit] | –
35 | O=c1oc2ccccc2cc1-c1nc2c(s1)CCc1ccccc1-2 | inconclusive [inhibitor, single point] | –
36 | Cc1ccc(S(=O)(=O)N(C)C)cc1NC(=O)COC(=O)CNC(=O)c1cccs1 | inconclusive [inhibitor, single point] | –
37 | COc1ccc(CCCC(=O)NCC(=O)N/N=C/c2cc(Cl)ccc2OC)cc1 | – | inactive: -3.14%
38 | COc1cccc(OC)c1NC(=O)C1CCCN1C(=O)Nc1cccc(Cl)c1 (stereo unspecified) | – | inactive: 15.2%
39 | NC(=O)c1sc2nc3c(c(-c4ccc(Cl)cc4)c2c1N)CCCC3 | – | inactive: -8.32%
40 | C=CCN1C(=O)c2ccc(C(=O)N(CC)CC(=O)Nc3cc(Cl)ccc3C)cc2C1=O | inconclusive [inhibitor, partial curve, poor fit] | –
41 | COc1ccc(C)cc1NC(=O)c1ccc2c(SCC(=O)O)c3c(nc2c1)CCCC3 | inconclusive [inhibitor, partial curve, poor fit] | –
42 | COc1ccc(OC)c(-c2nnc(SCC(=O)NC3CCCCC3)o2)c1 | inconclusive [inhibitor, single point] | –
43 | COc1cccc(NC(=O)CN(C)C(=O)Cc2ccc(Cl)cc2Cl)c1 | inconclusive [inhibitor, single point] | –
44 | CC[C@]1(O)CC2CN(CCc3c([nH]c4ccccc34)[C@@](C(=O)OC)(c3cc4c(cc3OC)N(C=O)[C@H]3[C@@](O)(C(=O)OC)[C@H](OC(C)=O)[C@]5(CC)C=CCN6CC[C@]43[C@@H]65)C2)C1 (stereo partly specified) | active: 0.147 µM | –

Row | Compound | Potency | activity change, negative = inhibition
45 | CCN1CCN(CCNC(=O)c2ccc(/C=C3\Sc4ccccc4N(Cc4ccccc4F)C3=O)cc2)CC1 | inconclusive [inhibitor, single point] | –
46 | CCN(CC)CCNC(=O)c1ccc(CS(=O)(=O)c2ccc(Br)cc2)o1 | inconclusive [inhibitor, partial curve] | –
47 | CCCc1c(NC(=O)Nc2ccc(F)cc2)cnn1-c1ccc(Cl)cc1 | active: 6.57 µM | –
48 | O=C(COc1ccccc1Cl)NCc1ccccc1 | – | inactive: 24.2%
49 | CCOc1ccccc1N1CCN(C(=O)c2c(CC)noc2C)CC1 | inconclusive [inhibitor, single point] | –
50 | Cc1cccc(OCCCSc2nc3ccc(C)cc3[nH]2)c1 | – | inactive: 4.36%
51 | COc1ccc(/C=C(\NC(=O)/C=C/c2ccco2)C(=O)NCCc2nc3ccccc3[nH]2)cc1 | – | inactive: -10.7%
52 | CN(Cc1ccccc1)S(=O)(=O)c1ccc(OCC(=O)Nc2cccc([N+](=O)[O-])c2)cc1 | inconclusive [inhibitor, partial curve] | –
53 | CCc1nc2c(oc3ccccc32)c(=O)[nH]1 | inconclusive [inhibitor, single point] | –
54 | O=S(Cc1ccc(Br)cc1)Cc1nnc(SCc2c(F)cccc2Cl)n1-c1ccccc1 (stereo unspecified) | inconclusive [inhibitor, partial curve, poor fit] | –
55 | C=CCN1C[C@@H](C)N(C(c2ccc(C(=O)N(CC)CC)cc2)c2cccc(OC)c2)C[C@@H]1C (stereo partly specified) | active: 1.65 µM | –
56 | COc1ccc(CCNC(=O)c2cc(-c3cccs3)on2)cc1OC | inconclusive [inhibitor, single point] | –
57 | Fc1ccccc1-c1ccc(/C=N/Nc2nc3ccccc3[nH]2)o1 | inconclusive [inhibitor, full curve] | –
58 | CCN1CCN(C(=O)CN2C(=O)COc3ccc(S(=O)(=O)N4CCOCC4)cc32)CC1 | – | inactive: -7.45%
59 | COc1ccc(Cn2c(=O)[nH]c3cc(C(=O)NCCCN4CCCCC4)ccc3c2=O)cc1 | inconclusive [inhibitor, partial curve, poor fit] | –
60 | COc1ccc(-c2cn3cc(Br)cnc3n2)cc1 | – | inactive: 52.8%
61 | O=C(Nc1ccccc1N1CCN(c2ccc(F)cc2)CC1)c1ccccc1 | inconclusive [inhibitor, single point] | –
62 | O=C(O)c1ccc(N2C(=O)Nc3ccccc3N2O)cc1 | – | inactive: 34.5%
63 | O=C(Oc1ccc2ccc(=O)oc2c1)c1ccccc1 | – | inactive: 9.9%
64 | Cc1ccc(C)n1-c1ccc(-c2ccn[nH]2)cc1 | inconclusive [inhibitor, single point] | –
65 | CC(=O)Nc1ccc(C2=NNC(=Nc3cccc(S(=O)(=O)N(C)C)c3)SC2)cc1 | inconclusive [inhibitor, single point] | –
66 | CC1(C)N=c2ccc([N+](=O)[O-])c(N)c2=[N+]1[O-] | inconclusive [inhibitor, single point] | –
